Laboratory results as given in a compilation of properties of binary mixtures (doi:10.1016/j.jct.2008.09.003).
The densities may have been worked out from excess volumes.

Assay: xn = mol fraction of the nth substance listed
Settings: 101 kPa

SMILES: CCCC[n+]1ccn(C)c1.F[P-](F)(F)(F)(F)F + CN1CCCC1=O
- mass density (298.15 K, x2 = 0.1062): 1351.1 kg/m3
- mass density (298.15 K, x2 = 0.2152): 1332.3 kg/m3
- mass density (298.15 K, x2 = 0.3116): 1312.9 kg/m3
- mass density (298.15 K, x2 = 0.4127): 1289.4 kg/m3
- mass density (298.15 K, x2 = 0.6131): 1230.8 kg/m3
- mass density (298.15 K, x2 = 0.7116): 1193.8 kg/m3
- mass density (298.15 K, x2 = 0.809): 1149.7 kg/m3
- mass density (303.15 K, x2 = 0.1062): 1348.5 kg/m3
- mass density (303.15 K, x2 = 0.2152): 1329.7 kg/m3
- mass density (303.15 K, x2 = 0.3116): 1310.3 kg/m3
- mass density (303.15 K, x2 = 0.4127): 1286.7 kg/m3
- mass density (303.15 K, x2 = 0.5149): 1259.1 kg/m3
- mass density (303.15 K, x2 = 0.809): 1146.5 kg/m3
- mass density (303.15 K, x2 = 0.9047): 1092.6 kg/m3
- mass density (308.15 K, x2 = 0.1062): 1343.5 kg/m3
- mass density (308.15 K, x2 = 0.2152): 1324.9 kg/m3
- mass density (308.15 K, x2 = 0.3116): 1305.5 kg/m3
- mass density (308.15 K, x2 = 0.4127): 1281.9 kg/m3
- mass density (308.15 K, x2 = 0.5149): 1254.3 kg/m3
- mass density (308.15 K, x2 = 0.6131): 1223.2 kg/m3
- mass density (308.15 K, x2 = 0.7116): 1186.1 kg/m3
- mass density (308.15 K, x2 = 0.9047): 1087.7 kg/m3
- mass density (313.15 K, x2 = 0.2152): 1321 kg/m3
- mass density (313.15 K, x2 = 0.5149): 1250.5 kg/m3
- mass density (313.15 K, x2 = 0.6131): 1219.3 kg/m3
- mass density (313.15 K, x2 = 0.809): 1137.6 kg/m3
- mass density (313.15 K, x2 = 0.9047): 1083.5 kg/m3
